# Assay results taken from PubChem BioAssay (Tox21).
# The inconclusive results got no clear call from the source; some entries with a clear call stand among them for comparison. A potency beside an inconclusive call is a rough fit, not a confirmed value. Activity calls are given as the source filed them. Unless noted, calls follow the shape of the full dose curve.
# Tests used:
# [1] = molecular target: Peroxisome proliferator-activated receptor delta (Homo sapiens) (UniProt Q03181); experiment: qHTS assay to identify small molecule agonists of the peroxisome proliferator-activated receptor delta (PPARd) signaling pathway (AID 743212); conditions: HEK293H PPARd-UAS-bla, beta-lactamase FRET ratio, 17 h; activation: at 62.6 µM (top of the series) unless noted; as to activation: % is scaled to controls: 0 for no effect and ±100 for the full control effect
# Sequence of UniProt Q03181 (Q03181 whole entry, looked up): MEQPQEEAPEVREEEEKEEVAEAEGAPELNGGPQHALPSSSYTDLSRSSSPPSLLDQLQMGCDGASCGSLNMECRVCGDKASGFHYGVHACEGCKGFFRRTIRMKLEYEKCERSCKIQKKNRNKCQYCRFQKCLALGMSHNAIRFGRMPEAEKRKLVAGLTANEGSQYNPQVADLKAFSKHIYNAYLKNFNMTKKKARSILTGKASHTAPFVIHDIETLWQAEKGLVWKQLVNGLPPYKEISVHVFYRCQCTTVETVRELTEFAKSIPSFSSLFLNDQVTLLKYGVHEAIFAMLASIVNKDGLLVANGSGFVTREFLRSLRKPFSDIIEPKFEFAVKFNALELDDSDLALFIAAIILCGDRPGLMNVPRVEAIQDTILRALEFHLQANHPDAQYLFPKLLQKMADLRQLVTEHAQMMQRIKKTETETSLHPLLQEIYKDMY
# In short: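 Quantitative high-throughput agonist screen in a HEK293H beta-lactamase reporter line under UAS control. Compounds in DMSO, at 37 C. Fluorescence read after 2 h with FRET substrate at room temperature.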
# [2] = molecular target: Peroxisome proliferator-activated receptor delta (Homo sapiens) (UniProt Q03181); experiment: qHTS assay to identify small molecule antagonists of the peroxisome proliferator-activated receptor delta (PPARd) signaling pathway (AID 743215; active = well fitted inhibition curve with a large enough effect in the signal ratio in the repeat runs, not every such curve was filed as active; inconclusive = weak or mixed curves, or effect the other way; inactive = no such curve, though single readings can be large or run the other way; the % refers to the signal ratio;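 also: cells stimulated with agonist L165041 at 300 nM final during compound exposure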; as to ratio activity, negative = inhibition: % is scaled to controls: 0 for no effect and ±100 for the full control effect); conditions: HEK293H PPARd-UAS-bla, beta-lactamase FRET ratio, antagonist, 17 h; ratio activity, negative = inhibition: at 62 µM (top of the series) unless noted
# In short: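 PPARd-bla HEK293H cells (UAS-bla reporter) preincubated 5 h, then given compound plus 300 nM final L165041 agonist for 17 h at 37 C. Beta-lactamase activity read by LiveBLAzer B/G FRET substrate fluorescence after 2 h at room temperature.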
# [3] = qHTS assay to identify small molecule agonists of the endoplasmic reticulum stress response signaling pathway (AID 1159516; active = well fitted activation curve with a large enough effect in the signal ratio in the repeat runs, not every such curve was filed as active; inconclusive = weak or mixed curves, or effect the other way; the % refers to the signal ratio; as to activation: % is scaled to controls: 0 for no effect and ±100 for the full control effect); conditions: ESRE-bla HeLa, ER stress beta-lactamase reporter, 5 h; activation: at 61 µM (top of the series) unless noted
# In short: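 CellSensor ESRE-bla HeLa cells, 1,500 per well, plated overnight, then exposed to compounds for 5 hr at 37 C. Beta-lactamase reporter read with LiveBLAzer B/G FRET substrate after 2 hr at room temperature, 405 nm excitation, 460 and 530 nm emission.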
# [4] = qHTS assay to identify small molecule agonists of the AP-1 signaling pathway - cell viability counter screen (AID 1159525); also: nearly all actives have a fitted effect of over 55% in size
# In short: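 AP-1-bla ME-180 cells in Opti-MEM with 0.5% dialyzed FBS, compound exposure 5 h at 37 C in 15-point titration. Viability read in the same wells as ATP content by CellTiter-Glo luminescence, normalised to tetra-n-octylammonium bromide and DMSO controls.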
# [5] = qHTS assay to identify small molecule agonists of the farnesoid-X-receptor (FXR) signaling pathway - cell viability counter screen (AID 743218; active = well fitted curve in the direction sought with a large enough effect in the repeat runs; inconclusive = weak or mixed curves; inactive = no such curve, though single readings can be large; an effect the other way counts as inactive or inconclusive; also: nearly all actives have a fitted effect of over 45% in size); conditions: FXR-bla HEK293T viability, CellTiter-Glo luminescence, 16 h; viability change, negative = cytotoxic: at 62.6 µM (top of the series) unless noted
# In short: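 FXR-UAS-bla HEK 293T cells exposed to compounds for 16 h at 37C. Cytotoxicity read in the same wells by CellTiter-Glo luminescence after 30 min at room temperature, following the beta-lactamase FRET read.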
# [6] = molecular target: Vitamin D3 receptor (Homo sapiens) (UniProt P11473); experiment: qHTS assay to identify small molecule agonists of the vitamin D receptor (VDR) signaling pathway (AID 743222); conditions: HEK293T VDR-UAS-bla, beta-lactamase FRET ratio, 16 h; activation: at 63.5 µM (top of the series) unless noted
# Sequence of UniProt P11473 (P11473 whole entry, looked up): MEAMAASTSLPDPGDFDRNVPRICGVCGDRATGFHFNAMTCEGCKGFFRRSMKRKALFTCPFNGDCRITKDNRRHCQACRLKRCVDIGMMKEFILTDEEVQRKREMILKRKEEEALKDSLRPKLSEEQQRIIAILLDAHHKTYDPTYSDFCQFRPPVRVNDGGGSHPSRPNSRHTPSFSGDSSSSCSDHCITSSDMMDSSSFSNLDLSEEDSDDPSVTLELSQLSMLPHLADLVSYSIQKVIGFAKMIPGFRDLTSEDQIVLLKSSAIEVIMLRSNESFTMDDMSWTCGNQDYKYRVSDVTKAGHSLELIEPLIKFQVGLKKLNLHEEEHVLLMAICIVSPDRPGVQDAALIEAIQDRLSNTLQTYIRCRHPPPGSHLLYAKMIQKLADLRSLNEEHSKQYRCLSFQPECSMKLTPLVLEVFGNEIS
# In short: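 VDR-bla cells plated 4 h at 37 C, then exposed to compounds for 16 h at 37 C. Beta-lactamase reporter activity measured by fluorescence after 2 h room-temperature loading with LiveBLAzer B/G FRET substrate.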
# [7] = qHTS assay to identify small molecule agonists of the AP-1 signaling pathway (AID 1159526); conditions: ME-180 (cervical carcinoma) AP-1-bla reporter, beta-lactamase FRET ratio, 5 h; activation: at 76.8 µM (top of the series) unless noted; as to activation: % is scaled to controls: 0 for no effect and ±100 for the full control effect
# [8] = molecular target: Retinoic acid receptor RXR-alpha (Homo sapiens) (UniProt P19793); experiment: qHTS assay to identify small molecule agonists of the RXR signaling pathway (AID 1159527); conditions: HEK293T RXRa-UAS-bla, beta-lactamase ratio, 16 h; activation: at 76.8 µM (top of the series) unless noted; also: nearly all actives have a fitted effect of over 35% in size
# Sequence of UniProt P19793 (P19793 whole entry, looked up): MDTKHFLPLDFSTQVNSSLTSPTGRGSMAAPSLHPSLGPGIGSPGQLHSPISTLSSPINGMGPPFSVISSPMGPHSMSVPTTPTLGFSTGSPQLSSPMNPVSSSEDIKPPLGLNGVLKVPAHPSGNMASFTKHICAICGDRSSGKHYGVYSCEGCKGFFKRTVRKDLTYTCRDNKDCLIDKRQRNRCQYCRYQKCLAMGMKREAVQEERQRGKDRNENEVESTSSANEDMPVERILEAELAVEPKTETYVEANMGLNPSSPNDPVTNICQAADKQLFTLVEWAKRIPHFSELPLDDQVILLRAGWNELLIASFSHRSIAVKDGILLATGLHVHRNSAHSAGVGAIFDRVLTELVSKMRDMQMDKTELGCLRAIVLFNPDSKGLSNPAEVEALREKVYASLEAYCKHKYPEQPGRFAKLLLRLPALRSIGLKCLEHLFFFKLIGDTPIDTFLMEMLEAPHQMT
# In short: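 Agonist mode; 9-cis retinoic acid positive control. HEK 293T UAS-bla reporter cells, 2% charcoal-stripped FBS, 16 hr compound exposure at 37 C/5% CO2. LiveBLAzer B/G FRET substrate 2 hr RT; ex 405, em 460/530 nm.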
# [9] = qHTS assay to identify small molecule agonists of the RXR signaling pathway - cell viability counter screen (AID 1159529; active = well fitted curve in the direction sought with a large enough effect in the repeat runs; inconclusive = weak or mixed curves; inactive = no such curve, though single readings can be large; an effect the other way counts as inactive or inconclusive; also: nearly all actives have a fitted effect of over 50% in size)
# In short: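 Luminescence from CellTiter-Glo (30 min, RT) measured viability in the same wells as the beta-lactamase reporter readout. Cells: GeneBLAzer RXR-alpha HEK 293T, 2% charcoal-stripped FBS. Compound exposure 16 hr, 37 C.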
# [10] = qHTS assay to identify small molecule antagonists of the peroxisome proliferator-activated receptor delta (PPARd) signaling pathway - cell viability counter screen (AID 743213; active = well fitted curve in the direction sought with a large enough effect in the repeat runs; inconclusive = weak or mixed curves; inactive = no such curve, though single readings can be large; an effect the other way counts as inactive or inconclusive; also: nearly all actives have a fitted effect of over 50% in size); conditions: PPARd-bla HEK293H viability, CellTiter-Glo luminescence, 17 h; viability change, negative = cytotoxic: at 62 µM (top of the series) unless noted
# In short: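 Cytotoxicity counter screen: CellTiter-Glo luminescence read 30 min after addition, in the same wells as the reporter assay. There, PPARd UAS-bla HEK293H cells (3000/well) were treated 17 h at 37 C with compound and 300 nM L165041.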
# [11] = molecular target: Bile acid receptor (Homo sapiens) (UniProt Q96RI1); experiment: qHTS assay to identify small molecule antagonists of the farnesoid-X-receptor (FXR) signaling pathway (AID 743217; active = well fitted inhibition curve with a large enough effect in the signal ratio in the repeat runs, not every such curve was filed as active; inconclusive = weak or mixed curves, or effect the other way; inactive = no such curve, though single readings can be large or run the other way; the % refers to the signal ratio); conditions: HEK293T FXR-UAS-bla, beta-lactamase ratio, CDCA-stimulated, 16 h; activity change, negative = inhibition: at 62.6 µM (top of the series) unless noted
# Sequence of UniProt Q96RI1 (Q96RI1 whole entry, looked up): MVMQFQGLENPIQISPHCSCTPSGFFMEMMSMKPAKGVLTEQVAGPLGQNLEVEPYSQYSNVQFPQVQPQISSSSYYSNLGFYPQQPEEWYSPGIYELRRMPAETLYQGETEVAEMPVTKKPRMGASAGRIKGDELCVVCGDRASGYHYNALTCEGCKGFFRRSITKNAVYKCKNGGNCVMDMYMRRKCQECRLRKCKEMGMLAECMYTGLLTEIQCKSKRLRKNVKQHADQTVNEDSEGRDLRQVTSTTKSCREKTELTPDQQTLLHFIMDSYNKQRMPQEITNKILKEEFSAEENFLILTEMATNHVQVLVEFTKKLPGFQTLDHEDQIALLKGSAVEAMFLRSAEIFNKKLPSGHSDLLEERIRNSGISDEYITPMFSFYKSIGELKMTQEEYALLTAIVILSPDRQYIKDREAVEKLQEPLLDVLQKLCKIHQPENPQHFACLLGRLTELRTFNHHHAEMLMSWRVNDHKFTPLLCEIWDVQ
# In short: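 FXR-UAS-bla HEK 293T cells (beta-lactamase reporter) given compound plus chenodeoxycholic acid (50 uM final), 16 h at 37C. LiveBLAzer B/G FRET substrate added for 2 h at room temperature; fluorescence read.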
# [12] = molecular target: Vitamin D3 receptor (Homo sapiens) (UniProt P11473); experiment: qHTS assay to identify small molecule antagonists of the vitamin D receptor (VDR) signaling pathway (AID 743223; active = well fitted inhibition curve with a large enough effect in the signal ratio in the repeat runs, not every such curve was filed as active; inconclusive = weak or mixed curves, or effect the other way; inactive = no such curve, though single readings can be large or run the other way; the % refers to the signal ratio); conditions: VDR-UAS-bla HEK293T, beta-lactamase FRET ratio, 16 h; activity change, negative = inhibition: at 61 µM (top of the series) unless noted
# In short: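 Beta-lactamase reporter read-out: FRET substrate fluorescence after 2 h at room temperature, following 16 h exposure of VDR-bla cells to test compound plus 3 nM (final) 1alpha,25-dihydroxyvitamin D3 agonist at 37C.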
# [13] = qHTS assay to identify small molecule agonists of the vitamin D receptor (VDR) signaling pathway - cell viability counter screen (AID 743224; active = well fitted curve in the direction sought with a large enough effect in the repeat runs; inconclusive = weak or mixed curves; inactive = no such curve, though single readings can be large; an effect the other way counts as inactive or inconclusive; also: nearly all actives have a fitted effect of over 50% in size); conditions: VDR-bla HEK293T viability, CellTiter-Glo luminescence, 16 h; activity change, negative = cytotoxicity: at 62.6 µM (top of the series)
# In short: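 VDR-bla cells, 4 h after plating, exposed to compounds for 16 h at 37C; viability then read in the same wells as CellTiter-Glo luminescence after 30 min at room temperature, following the bla FRET read.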
# [14] = qHTS assay to identify small molecule antagonists of the retinoid acid receptor (RAR) signaling pathway - cell viability counter screen (AID 1159551; active = well fitted curve in the direction sought with a large enough effect in the repeat runs; inconclusive = weak or mixed curves; inactive = no such curve, though single readings can be large; an effect the other way counts as inactive or inconclusive; also: nearly all actives have a fitted effect of over 35% in size)
# In short: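 C3RL4 RARE-luciferase cells, 1,000/well, incubated overnight, then dosed with compound plus 1 uM retinol (final). After 6 hr at 37 C, viability read by CellTiter-Glo ATP luminescence following 30 min at room temperature.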
# [15] = molecular target: Bile acid receptor (Homo sapiens) (UniProt Q96RI1); experiment: qHTS assay to identify small molecule agonists of the farnesoid-X-receptor (FXR) signaling pathway (AID 743220; active = well fitted activation curve with a large enough effect in the signal ratio in the repeat runs, not every such curve was filed as active; inconclusive = weak or mixed curves, or effect the other way; the % refers to the signal ratio); conditions: HEK293T FXR-UAS-bla, beta-lactamase FRET ratio, 16 h; activation: at 62.6 µM (top of the series) unless noted
# In short: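 Beta-lactamase reporter under UAS control in GeneBLAzer FXR HEK 293T cells (5000/well) measured with LiveBLAzer FRET substrate after 2 h at room temperature. Compound exposure lasted 16 h at 37C.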
# [16] = qHTS assay to identify small molecule antagonists of the farnesoid-X-receptor (FXR) signaling pathway - cell viability counter screen (AID 743221; active = well fitted cell-killing curve with a large enough effect in the repeat runs, not every such curve was filed as active; inconclusive = weak or mixed curves, or effect the other way; inactive = no such curve, though single readings can be large or run the other way; also: nearly all actives have a fitted effect of over 50% in size); conditions: FXR-bla HEK293T viability, CellTiter-Glo luminescence, 16 h; activity change, negative = cytotoxicity: at 62.6 µM (top of the series)
# In short: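 HEK 293T FXR-bla cells, 5 h pre-incubation; compound + CDCA 50 uM final, 16 h, 37 C; beta-lactamase FRET read first, then CellTiter-Glo luminescence, 30 min RT.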
# [17] = qHTS assay to identify small molecule antagonists of the vitamin D receptor (VDR) signaling pathway - cell viability counter screen (AID 743225; active = well fitted curve in the direction sought with a large enough effect in the repeat runs; inconclusive = weak or mixed curves; inactive = no such curve, though single readings can be large; an effect the other way counts as inactive or inconclusive; also: nearly all actives have a fitted effect of over 50% in size); conditions: VDR-bla HEK293T viability, CellTiter-Glo luminescence, 16 h; viability change, negative = cytotoxic: at 61 µM (top of the series) unless noted
# In short: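 Viability counter screen run in the same wells as the beta-lactamase reporter assay: HEK 293T VDR-UAS-bla cells, 16 h compound exposure at 37C with 3 nM (final) 1-alpha,25-dihydroxyvitamin D3. CellTiter-Glo luminescence, 30 min, room temperature.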
# Potency is read from the fitted curve at half-maximal effect; tags tell the direction and shape of the fitted curve or compound fluorescence and quenching.
compound,measurement,setting,value
CNS(=O)(=O)CCc1ccc2[nH]cc(C3CCN(C)CC3)c2c1,Potency,[1],inactive
same,Potency,[2],inactive
same,Potency,[3],inactive
same,Potency,[4],inactive
CC(C)C1=CC2=CC[C@@H]3[C@](C)(CCC[C@@]3(C)C(=O)O)[C@H]2CC1,Potency,[2],"inconclusive: 24.5 µM [fluorescent, partial curve, poor fit]"
same,Potency,[5],"inconclusive: 49 µM [cytotoxic, partial curve, poor fit]"
same,Potency,[6],"inconclusive: 54.9 µM [rising, single point]"
same,Potency,[3],inactive
same,Potency,[7],"inconclusive: 21.9 µM [activator, partial curve, poor fit]"
same,Potency,[8],inconclusive: 49 µM
same,Potency,[9],"inconclusive: 21.9 µM [cytotoxic, partial curve, poor fit]"
CCCCCCCCCO,Potency,[3],inactive
same,activation,[7],inconclusive: -11.4%
same,activation,[8],inconclusive: 14.3%
CO[Si](OC)(OC)OC,Potency,[3],inactive
same,Potency,[7],inactive
same,Potency,[8],inactive
Cc1ccc(C=O)cc1C,Potency,[3],inactive
same,Potency,[7],inactive
CC12CCC(CC1)C(C)(C)O2,Potency,[10],"inconclusive: 54.2 µM [cytotoxic, single point]"
same,Potency,[2],"inconclusive: 21.6 µM [fluorescent, partial curve, poor fit]"
same,Potency,[11],inactive
same,Potency,[12],inactive
same,Potency,[13],"inconclusive: 17.4 µM [cytotoxic, partial curve]"
same,Potency,[3],"inconclusive: 60.8 µM [activator, single point]"
same,Potency,[7],"inconclusive: 0.608 µM [activator, partial curve, poor fit]"
same,Potency,[8],inactive
same,Potency,[14],"inconclusive: 3.44 µM [rising, full curve, poor fit]"
C[C@@]12CCC[C@H]1[C@@H]1CC[C@H]3C[C@@H](O)CC[C@]3(C)[C@H]1CC2,Potency,[2],inconclusive: 33.5 µM
same,"activity change, negative = inhibition",[11],inconclusive: -30.3%
same,Potency,[6],inconclusive: 33.5 µM [single point]
same,"activity change, negative = inhibition",[12],inconclusive: 21.3%
same,Potency,[3],"inconclusive: 0.0756 µM [rising, partial curve, poor fit]"
same,Potency,[7],"inconclusive: 26.8 µM [activator, single point]"
same,activation,[8],inconclusive: -22.3% [at 35.3 µM]
same,Potency,[9],"inconclusive: 23.9 µM [cytotoxic, partial curve]"
NC1CCN(c2nc3c(cc2F)c(=O)c(C(=O)O)cn3-c2ccc(F)cc2F)C1 (stereo not drawn),activation,[1],inconclusive: -0.908%
same,Potency,[2],"inconclusive: 26.6 µM [activator, partial curve]"
same,"activity change, negative = inhibition",[11],inconclusive: 23.3%
same,activation,[15],inconclusive: 8.35%
same,Potency,[3],inactive
same,Potency,[7],inactive
same,Potency,[8],"inconclusive: 23.9 µM [activator, partial curve]"
CCOc1ccc2nc3cc(N)ccc3c(N)c2c1,Potency,[1],inconclusive: 33.5 µM
same,Potency,[10],inactive
same,Potency,[11],inconclusive: 26.6 µM [partial curve]
same,Potency,[15],inconclusive: 33.5 µM [fluorescent]
same,Potency,[16],"inconclusive: 33.5 µM [falling, single point]"
same,Potency,[6],"inconclusive: 0.0133 µM [activator, full curve, poor fit]"
same,Potency,[12],inconclusive: 26.8 µM
same,Potency,[17],inactive
same,activation,[3],inconclusive: 5.52%
same,Potency,[7],"inconclusive: 1.34 µM [activator, full curve, poor fit]"
same,Potency,[8],inconclusive: 16.9 µM [partial curve]
same,Potency,[9],"inconclusive: 13.4 µM [cytotoxic, partial curve, poor fit]"
CCc1cc2cc(OC)c(OC)cc2c(Cc2ccccc2)n1,"activity change, negative = inhibition",[11],inconclusive: -13.2%
same,"activity change, negative = inhibition",[12],inconclusive: 4.13%
same,Potency,[17],inactive
same,Potency,[3],inactive
same,Potency,[7],"inconclusive: 23.9 µM [falling, partial curve, poor fit]"
same,activation,[8],inconclusive: -17.7% [at 35.3 µM]
same,Potency,[14],inconclusive: 0.0008 µM
O=C(O)c1cc(-c2ccc(F)cc2F)ccc1O,Potency,[1],"inconclusive: 29.8 µM [rising, partial curve]"
same,Potency,[10],"inconclusive: 29.8 µM [cytotoxic, single point]"
same,Potency,[2],"inconclusive: 13.3 µM [fluorescent, partial curve, poor fit]"
same,Potency,[11],"inconclusive: 11.9 µM [activator, partial curve]"
same,Potency,[15],"inconclusive: 11.9 µM [falling, partial curve, poor fit]"
same,activation,[6],inconclusive: -7.35%
same,Potency,[12],"inconclusive: 10.7 µM [fluorescent, partial curve]"
same,Potency,[17],"inconclusive: 13.4 µM [cytotoxic, partial curve, poor fit]"
same,Potency,[3],"inconclusive: 13.4 µM [partial curve, poor fit]"
same,Potency,[7],inactive
same,Potency,[8],"inconclusive: 12 µM [fluorescent, partial curve]"
CC[C@H](C)[C@H](N)C(=O)O,Potency,[3],inactive
same,Potency,[7],inactive
same,Potency,[8],inactive
same,Potency,[9],"inconclusive: 10.7 µM [rising, partial curve, poor fit]"
CC(=O)c1ccc(OCC(=O)N2CCCCC2)cc1,Potency,[3],inactive
same,Potency,[7],inactive
same,Potency,[8],inactive
Nc1ccc(S(=O)(=O)Nc2ccccc2)cc1,Potency,[10],inactive
same,Potency,[3],inactive
same,Potency,[4],"inconclusive: 0.239 µM [cytotoxic, single point]"
